Reference: patent publication US20190100594A1 (INHIBRX, published 2019)

Experiments:
[1] = molecular target: T1, human GITR extracellular domain human IgG1 fusion protein (GITR-Fc) (human, UniProt Q9Y5U5 26-162, biotinylated (site not stated)); assay: SPR, biotinylated GITR-Fc captured on chip, binder injected at 0-600 nM
T1 construct: extracellular domain; The protein was captured on the SPR chip through biotin; also called human GITR-Fc; not shown: human IgG1 Fc portion of the fusion
T1 sequence (looked up): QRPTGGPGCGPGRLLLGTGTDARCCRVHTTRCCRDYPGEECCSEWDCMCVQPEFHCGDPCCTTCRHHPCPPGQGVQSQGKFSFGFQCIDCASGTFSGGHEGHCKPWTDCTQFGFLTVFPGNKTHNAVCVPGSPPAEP
Method: (§1) The binding affinities of the GITR-targeting molecule referred to herein as bivalent hzC06v3.9-hIgG1 or 2×hzC06v3.9-IgG1 Fc (SEQ ID NO: 93) for human and cynomolgus GITR extracellular domain human IgG1 fusion protein (GITR-Fc) were determined by surface plasmon resonance. Briefly, biotinylated human and cynomolgus GITR-Fc were captured on the chip surface and then bivalent hzC06v3.9-hIgG1 was injected at 10 concentrations (0 nM-600 nM) at 40 ul/min for 120 seconds.

[2] = molecular target: T2, cynomolgus GITR extracellular domain human IgG1 fusion protein (GITR-Fc) (cynomolgus; human); assay: as above
T2 construct: extracellular domain; The protein was captured on the SPR chip through biotin; also called cynomolgus GITR-Fc
Method: as §1

[3] = molecular target: T3, GITR on activated primary human T cells; assay: flow cytometry on in vitro activated primary human CD4 T cells (three donors), anti-hIgG secondary antibody
T3 construct: GITR is the target of the anti-GITR molecule
T3 chain: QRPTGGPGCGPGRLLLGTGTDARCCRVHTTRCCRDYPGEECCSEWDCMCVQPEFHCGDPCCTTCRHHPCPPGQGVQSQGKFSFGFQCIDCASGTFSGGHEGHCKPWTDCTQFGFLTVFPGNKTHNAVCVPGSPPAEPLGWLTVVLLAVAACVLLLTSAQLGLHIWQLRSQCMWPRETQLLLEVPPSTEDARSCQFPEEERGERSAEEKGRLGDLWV
Method: Total PBMC or purified Treg isolated by fluorescence-activated cell sorting were prepared from healthy human donors. The cells were activated in vitro with anti-CD3 and anti-CD28 supplemented with recombinant human IL2. The cells were incubated with varying concentrations of tetravalent hzC06-hIgG1 and a surface phenotyping antibody cocktail. Samples were then washed and stained with a fluorescently-labeled anti-hIgG secondary antibody and then assessed by flow cytometry. Activated CD4 T cells were identified by staining with CD3, CD4, and CD25. Results of these studies are shown in FIG. 7 for activated CD4 T cells from three donors (closed symbols, solid lines) and activated Treg from two donors (open symbols, dashed lines).

- Kd [1]: 6.4 nM
- koff [1]: 0.00412 s⁻¹
- kon [1]: 640000 M⁻¹ s⁻¹
- Kd [2]: 87.1 nM
- koff [2]: 0.0106 s⁻¹
- kon [2]: 122000 M⁻¹ s⁻¹
- EC50 (read off the curve) [3]: ~0.2 nM
B1: 2×hzC06v3.9-IgG1 Fc (SEQ ID NO: 93) (Fc fusion)
chain: EVQLLESGGGEVQPGGSLRLSCAASGSVFSIDAMGWYRQAPGKQRELVAVLSGISSAKYAASAPGRFTISRDNAKNTVYLQMSSLRAEDTAVYYCYADVSTGWGRDAHGYWGQGTLVTVKPGGSGGSEVQLLESGGGEVQPGGSLRLSCAASGSVFSIDAMGWYRQAPGKQRELVAVLSGISSAKYAASAPGRFTISRDNAKNTVYLQMSSLRAEDTAVYYCYADVSTGWGRDAHGYWGQGTLVTVKPGGGG[human IgG1 Fc not printed]
notes: also called bivalent hzC06v3.9-hIgG1; 2x hzC06 IgG1-Fc
